Results: US20240016784A1, “Y BOX BINDING PROTEIN 1 INHIBITORS” (Oregon Health & Science University, priority 2020, published 2024)

Tested on: OVCAR8 YBX1-shRNA1 cells
Assay: Cell viability assay, transduced OVCAR8 cells
Conditions: YBX1-shRNA1 and YBX1-shRNA2 vs SC cells
Description: Cell lines: Human ovarian cancer (OC) OVCAR3, OVCAR4, OVCAR5, OVCAR8, and SKOV-3 cell lines were obtained from the NCI cell line repository (DTP). SH-SY5Y and N27 cell lines were obtained from Dr. Manish Chamoli (Buck Institute, CA, USA). ID8 and Luciferase-tagged ID8 cells were obtained from Dr. Erinn Rankin (Stanford University, CA, USA). Scrambled control (SC), YBX1 knockdown (1 & 2) and mCherry-YBX1 OVCAR8 cell lines were created using lentiviral based transduction and selected using puromycin resistance followed by cell shorting. All OVCAR cells were maintained in RPMI-1640 (Corning, USA; #10-040-CV) supplemented with 10% FBS (Corning, USA; #35-015-CV) and 1% Antibiotic-Antimycotic solution (Gibco, USA; Ser. No. 15/240,062). SKOV3 and ID8 cells were maintained in DMEM media (Corning, USA; #10-013-CV) supplemented with 10% FBS and 1% Antibiotic-Antimycotic solution. All cells were maintained at 37° C. and 5% CO2. SH-SY5Y and N27 cells were maintained in DMEM/F12 media (Hyclone, #SH30525.01) supplemented with 10% FBS and 1% Antibiotic-Antimycotic solution. […]
Cell viability assay: Cell viability was assessed using the standard MTT assay protocol. […] Absorbance at 570 nm for each well was recorded using a multimode plate reader to quantitate MTT crystallization. Each absorbance value was normalized to controls and converted into percent cell viability. […]

O=C1OCC2=C1C(c1cccc(F)c1)c1cc3c(cc1N2CCO)OCO3 (stereo not shown) [SU056, 9-(3-fluorophenyl)-5-(2-hydroxyethyl)-6,9-dihydro-[1,3]dioxolo[4,5-g]furo[3,4-b]quinolin-8(5H)-one]
increase of IC50 value by YB-1 knockdown compared to SC: ~5 fold
